# Measurements reported in PubChem BioAssay AID686979 (National Center for Advancing Translational Sciences (NCATS), 2013).
# Where “and” joins values, the source holds several entries; their conditions need not be identical. Identical values can stand only once. Out of some 420,000 compounds screened, about 50,000 (12%) were called active. This list was built around the results that the source calls inconclusive (neither active nor inactive); the mix of calls is not that of the screen. Calls come from the whole dose curve; as a rule, active = well fitted inhibition curve with a large enough effect; inconclusive = small, poorly fitted or top-dose-only effect; inactive = flat fitted curve, though single readings scatter. Potencies of inconclusive entries are left out as doubtful fits.
# Assay: qHTS for Inhibitors of human tyrosyl-DNA phosphodiesterase 1 (TDP1): qHTS in cells in presence of CPT; note: nearly all actives have a fitted effect of over 55% in size
# Conditions: chicken DT40 Tdp1-/-;hTDP1 cells + 20 nM CPT, ATP luminescence, 48 h; activity change, negative = growth inhibition: at 46.2 µM (top of the series)
# In short: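 Chicken DT40 Tdp1-/- cells stably complemented with human TDP1 were seeded at 400 cells/well in medium containing 20 nM camptothecin, exposed to pin-transferred compounds, and grown at 37 °C for at least 48 hr. Viability was read as ATP luminescence.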
# % is set by controls: 0 for no effect and ±100 for the full control effect; potency is the fitted concentration of half-maximal effect; tags give direction and shape of the fitted curve.
SMILES,"activity change, negative = growth inhibition",Potency
CCC1=NC(c2ccccc2OC)N(O)C1(C)C (configuration not stated),inactive: -15.9%,–
COc1cccc(Nc2cc(N3CCOCC3)c3nonc3c2[N+](=O)[O-])c1,–,active: 20.6 µM
O=C(CCNC(=O)N1CCn2c1nc1ccccc12)NCc1ccccc1,inactive: 1.25%,–
COc1ccc2c(c1)-c1nc(NC(=O)c3ccco3)sc1CC2,inconclusive: -31.4% [inhibitor],–
CCOc1ccccc1NC(=O)CCc1nnc2ccc(N3CCC(C)CC3)nn12,–,"inconclusive [inhibitor, single point]"
COc1ccc(CCC(=O)Nc2c(C)n(C)n(-c3ccccc3)c2=O)cc1,inactive: 0.353%,–
CC(=O)c1cc(C#N)c(SCC(=O)OC(C)(C)C)nc1C,–,active: 20.6 µM
CC1CN(c2ccc([N+](=O)[O-])cc2F)CCN1C(=O)c1ccco1 (configuration not stated),–,"inconclusive [inhibitor, single point]"
O=C(CN1C(=O)c2ccccc2C1=O)NC1CCC(O)CC1 (configuration not stated),inactive: 6.21%,–
CCc1nnc(NC(=O)CSc2nc(C3CCCCC3)nc3ccccc23)s1,–,"inconclusive [inhibitor, partial curve, poor fit]"
CCN(C[C@H]1N[C@@](Cc2ccccc2)(C(=O)OC)[C@H]2C(=O)N(C)C(=O)[C@@H]12)C(=O)C1CCCCC1,inactive: -26%,–
Cc1ccc(S(=O)(=O)N2CCC(C(N)=O)CC2)c(C)c1C,–,"inconclusive [inhibitor, single point]"
COc1cc2ccccc2cc1C(=O)N1CC(C)OC(C)C1 (configuration not stated),–,"inconclusive [inhibitor, single point]"
COc1cccc(C(=O)NC(=S)Nc2ccc3c4c(cccc24)CC3)c1,–,"inconclusive [inhibitor, single point]"
COc1ccc(S(=O)(=O)N2CCC(c3ccncc3)CC2)cc1Cl,–,"inconclusive [inhibitor, single point]"
CCCCCCC1/C(=N/O)CCC1C(=O)OC (configuration not stated),inactive: 4.26%,–
Cc1ccc(S(=O)(=O)N(C)C)cc1NC(=O)c1cc(S(=O)(=O)N2CCCCC2)ccc1N1CCOCC1,–,"inconclusive [inhibitor, single point]"
CCC1=NN(C(=O)c2ccccc2O)C(O)(c2ccccc2)C1 (configuration not stated),–,active: 13 µM
CCOc1ccccc1N1CCN(C(=O)CCCc2nc3ccccc3s2)CC1,–,"inconclusive [inhibitor, partial curve]"
CC(C)CN1C(=O)C(=O)N(CC(=O)NC(C)CCc2ccccc2)C1=O (configuration not stated),inactive: -16.9%,–
O=C(Nc1ccc(N2CCOCC2)cc1)c1csc([C@H]2C[C@H](O)[C@@H](CO)O2)n1,inactive: -25.4%,–
CCN(CC)CCn1c2c(c(SCC(=O)Nc3ccc(C)c(F)c3)nc1=O)CCCC2,–,"inconclusive [inhibitor, partial curve]"
C[C@H](NC(=O)c1ccc(C(C)(C)C)cc1)C(=O)N1CCN(C/C=C/c2ccccc2)CC1,–,"inconclusive [inhibitor, single point]"
Cc1cccc(CN2CCC(C(=O)Nc3ccc(-n4nc(C)cc4C)cc3)CC2)n1,inconclusive: -31.2% [inhibitor],–

SMILES,"activity change, negative = growth inhibition",Potency
Cc1ccc(NC(=O)CN(C)C(=O)C2CSC3(C)CCC(=O)N23)cc1 (configuration not stated),inactive: 1.61%,–
Cc1ccccc1-n1ncc2c1CC(C)(C)CC2NC(=O)CCC(F)(F)F (configuration not stated),inactive: -10.7%,–
COc1cccc(-c2onc3ccc(C(=O)/C=C/N(C)C)cc23)c1,–,"inconclusive [inhibitor, single point]"
Cc1cc(C)c2oc(C(=O)N(Cc3ccc(F)cc3)C3CCS(=O)(=O)C3)cc(=O)c2c1 (configuration not stated),–,"inconclusive [inhibitor, single point]"
COC(=O)C1=CN(c2ccc3c(c2)OCO3)C(N)=C(C#N)C1c1cccc(F)c1 (configuration not stated),–,active: 1.3 µM
Cc1ccc(NS(=O)(=O)c2cccc(C(=O)OCC(=O)NCc3ccco3)c2)cc1,–,"inconclusive [inhibitor, single point]"
CCN1CCN(C(c2ccc(OC)cc2)c2c(O)cc(C)n(CCOC)c2=O)CC1 (configuration not stated),inactive: 4.98%,–
COc1ccc(NC(=O)c2ccc(-c3ccc(-c4noc(C)n4)cc3C)cc2)cc1OCCN(C)C,–,active: 8.41 µM and active: 5.17 µM
Fc1cccc(Cc2noc(CN3CCN(c4cnccn4)CC3)n2)c1,inactive: 1.52%,–
COCCCNCC1C(Oc2ccc(Cl)cc2)C(=O)N1c1ccccc1C (configuration not stated),–,"inconclusive [inhibitor, single point]"
CC1NC(=O)c2cccnc2-n2c1nc1ccccc1c2=O (configuration not stated),inactive: -0.33%,–
N#Cc1ccc(CN2CC[C@@]3(CCCN(C(=O)c4cccc(F)c4)C3)C2)cc1,inactive: -0.784%,–
c1ccc(-c2nc(NCC3CCCO3)c3ccccc3n2)nc1 (configuration not stated),–,active: 5.17 µM
CCOC(=O)c1c(C)oc2ccc(N(C(=O)Oc3ccccc3)S(=O)(=O)c3ccccc3)cc12,inactive: 2.13%,–
CCOC(=O)c1ccc(NS(=O)(=O)c2cc(C)ccc2OC)cc1,–,"inconclusive [inhibitor, partial curve]"
Cc1ccc(F)c(S(=O)(=O)NC(=O)C2(C)CCN2C(=O)CCC2CCCC2)c1 (configuration not stated),inactive: 0.619%,–
O=c1c(O)c(-c2ccc(O)c(O)c2)oc2c(OC3OC(CO)C(O)C(O)C3O)c(O)cc(O)c12 (configuration not stated),–,"inconclusive [inhibitor, partial curve, poor fit]"
CCC(=O)N1CCc2cc(S(=O)(=O)NCCC(=O)N3CCN(c4cccc(C)c4)C(C)C3)ccc21 (configuration not stated),–,active: 20.6 µM
O=C(Nc1sc2c(c1C(=O)O)CCCC2)c1ccccc1Cl,–,"inconclusive [inhibitor, single point]"
COc1ccccc1NC(=O)c1c(NCc2sccc2C)sc2c1CCCCC2,–,"inconclusive [inhibitor, single point]"
O=C(c1ccccc1)c1ccc(OCC(O)CN2CCN(S(=O)(=O)N3CCCCC3)CC2)cc1 (configuration not stated),–,"inconclusive [inhibitor, single point]"
CCOc1ccc(Cc2nnc(SCC(=O)Nc3ccc(OC)cc3)n(N)c2=O)cc1,–,"inconclusive [inhibitor, single point]"
COc1ccccc1C/C(N)=N/OC(=O)c1ccco1,–,active: 20.6 µM
O=C(Nc1ccc(-c2nc3ccccc3c(=O)o2)cc1)c1ccco1,inactive: 0.147%,–

SMILES,"activity change, negative = growth inhibition",Potency
COc1ccc(C(CNC(=O)COc2ccc(C)cc2)N2CCCCC2)cc1 (configuration not stated),–,"inconclusive [inhibitor, partial curve]"
COc1ccc(NS(=O)(=O)c2cc(NC(=O)C3=NN(c4ccccc4)C(=O)CC3)ccc2C)cc1,–,"inconclusive [inhibitor, single point]"
Cc1ccc(C(=O)COC(=O)C2CCC2)cc1,inconclusive: -37.4% [inhibitor],–
Cc1ccc(NS(=O)(=O)c2ccc(Cl)nc2)c(C)c1,–,"inconclusive [inhibitor, full curve, poor fit]"
Cc1cc(O)c(-c2cc(C(=O)Nc3cccnc3)[nH]n2)cc1C,inactive: -3.62%,–
CC(=O)N(c1cc(C)ccc1C)c1ccccc1[N+](=O)[O-],–,"inconclusive [inhibitor, single point]"
CC(Sc1ccc(Cl)cc1)C(=O)NNC(=O)c1ccco1 (configuration not stated),inactive: 5.98%,–
O=C(Cn1c(=O)oc2ccccc21)NCc1cccc(Cl)c1,inconclusive: -31.5% [inhibitor],–
COc1ccc(OC)c(C2CC(=O)N3CN(c4ccccc4F)CSC3=C2C#N)c1 (configuration not stated),–,"inconclusive [inhibitor, full curve, poor fit]"
Cc1nn(C)c(C(=O)N2CCN(C(=O)c3ccco3)CC2)c1[N+](=O)[O-],–,"inconclusive [inhibitor, partial curve]"
O=C(CN1CCCCC1)Nc1cccc(Cl)c1Cl,–,"inconclusive [inhibitor, single point]"
CC1(C)CC2(CC(c3ccccc3)c3ccc(O)cc3O2)NC(=S)N1 (configuration not stated),–,"inconclusive [inhibitor, single point]"
COc1cc(C(=O)N/N=C(\C)Cc2ccccc2)cc(OC)c1OC,inactive: 10.6%,–
Cc1cccc(-n2ncc3c(N4CC(C)CC(C)C4)ncnc32)c1 (configuration not stated),–,"inconclusive [inhibitor, single point]"
COC(=O)CSc1nc(C)cc(C(F)(F)F)c1C#N,inactive: -5.31%,–
COc1cccc(NS(=O)(=O)c2ccc3c(c2)N(C(C)=O)CCS3)c1,–,"inconclusive [inhibitor, single point]"
COc1cccc(N/C(=N/C(=S)Nc2ccc(C)cc2C)Nc2nc(C)cc(C)n2)c1,–,"inconclusive [inhibitor, single point]"
CCC(=O)c1cn(CC(=O)Nc2ccccc2F)c2ccccc12,inactive: -1.03%,–
COCCN(C(=S)Nc1ccc(C(C)C)cc1)C(C)c1cccs1 (configuration not stated),–,"inconclusive [inhibitor, single point]"
O=[N+]([O-])c1cc([N+](=O)[O-])c(Oc2cc(Cl)ccc2Cl)cc1NC1CCCCCCC1,–,active: 18.4 µM
O=C(Cn1c(=O)[nH]c2ccccc2c1=O)N1CCN(Cc2ccc3c(c2)OCO3)CC1,–,"inconclusive [inhibitor, partial curve]"
CC1CC(NC(=O)c2cnc3n(c2=O)CCS3)CC(C)(C)C1 (configuration not stated),–,"inconclusive [inhibitor, partial curve]"
CN(C)/C=C/C(=O)c1cccc([N+](=O)[O-])c1,inactive: 19.3%,–
CSc1ccc(-c2ccc(C(=O)NCC3CCCO3)c(N3CCC(O)CC3)n2)cc1 (configuration not stated),inactive: -3.64% [at 9.04 µM],–
